The whole screen tested about 310,000 compounds, of which about 2,200 (0.71%) showed an effect of 50% or more. The effect is printed as a negative number. Some of the results follow.
target: human ether-à-go-go-related gene (hERG) potassium channel (human, UniProt Q12809); test: primary screen, population patch clamp on CHO cells stably expressing hERG
Sequence (Q12809 whole entry, looked up): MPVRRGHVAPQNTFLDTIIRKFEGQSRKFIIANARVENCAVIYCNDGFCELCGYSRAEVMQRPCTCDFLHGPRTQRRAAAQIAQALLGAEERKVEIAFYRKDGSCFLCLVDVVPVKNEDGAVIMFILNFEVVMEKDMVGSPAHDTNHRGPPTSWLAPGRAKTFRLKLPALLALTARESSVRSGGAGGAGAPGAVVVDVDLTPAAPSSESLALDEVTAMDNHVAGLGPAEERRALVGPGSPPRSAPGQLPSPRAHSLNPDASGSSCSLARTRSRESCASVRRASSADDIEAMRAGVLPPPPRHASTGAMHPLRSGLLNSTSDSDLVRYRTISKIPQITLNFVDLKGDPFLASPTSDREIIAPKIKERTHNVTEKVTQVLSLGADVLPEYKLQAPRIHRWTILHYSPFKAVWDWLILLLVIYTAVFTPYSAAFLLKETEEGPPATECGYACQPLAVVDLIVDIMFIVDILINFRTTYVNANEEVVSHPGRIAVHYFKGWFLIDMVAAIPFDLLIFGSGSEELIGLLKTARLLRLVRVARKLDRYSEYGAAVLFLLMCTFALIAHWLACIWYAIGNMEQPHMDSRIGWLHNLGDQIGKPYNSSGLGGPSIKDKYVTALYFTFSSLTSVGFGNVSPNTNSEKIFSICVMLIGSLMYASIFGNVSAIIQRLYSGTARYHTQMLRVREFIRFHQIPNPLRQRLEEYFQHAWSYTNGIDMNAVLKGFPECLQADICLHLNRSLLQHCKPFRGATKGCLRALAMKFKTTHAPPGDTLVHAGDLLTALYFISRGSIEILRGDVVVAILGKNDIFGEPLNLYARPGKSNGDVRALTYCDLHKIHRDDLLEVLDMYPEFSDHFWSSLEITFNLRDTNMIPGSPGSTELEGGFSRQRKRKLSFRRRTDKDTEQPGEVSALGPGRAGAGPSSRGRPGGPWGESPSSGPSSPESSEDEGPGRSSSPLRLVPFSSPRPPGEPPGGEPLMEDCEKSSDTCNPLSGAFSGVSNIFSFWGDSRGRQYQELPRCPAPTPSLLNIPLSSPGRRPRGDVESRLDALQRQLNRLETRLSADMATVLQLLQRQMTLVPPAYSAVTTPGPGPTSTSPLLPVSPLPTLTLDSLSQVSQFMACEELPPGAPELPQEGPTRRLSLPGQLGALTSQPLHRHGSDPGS

Row | Compound | hERG current change (%, negative = inhibition) at 1uM [%]
1 | COC(=O)Cc1nnc(Nc2cccc(C)c2)c2ccccc12 | 6.41
2 | CN1CCN(NC(=O)Nc2ccc(Br)cc2)CC1 | 8.8
3 | O=C(CCNC(=O)c1ccc(Br)cc1)NCc1ccncc1 | 1.07
4 | Nc1ncn(C(=O)c2ccco2)n1 | 18.6
5 | CCC(C)(C)C1CCC(=NNC(=S)Nc2ccccc2)CC1 (stereo not drawn) | 5.72
6 | Cc1ccc(NC(=O)c2oc3ccccc3c2C)c([N+](=O)[O-])c1 | 12.6
7 | CCc1ccc(NC(=O)Cn2cnc3sc(C)c(S(=O)(=O)N4CCOCC4)c3c2=O)cc1 | 0.377
8 | Cc1noc(C(=O)Nc2cccnc2)c1Cl | 14.8
9 | O=C(Cc1noc2ccccc12)Nc1ccc(Cl)cc1 | 10.4
10 | CC1CCCC(NC(=O)c2cccs2)C1C (stereo not drawn) | 14.6
11 | COc1ccccc1CNC(=O)Cc1ccc(OC)c(OC)c1 | 15.3
12 | O=C(NCCO)C(=O)NCC1OCCCN1S(=O)(=O)c1cccs1 (stereo not drawn) | 3.04
13 | O=C(COC(=O)c1ccccc1C(=O)c1ccc(Cl)cc1)NC(c1ccccc1)c1ccccc1 | 8.91
14 | CCNC(=S)N/N=C(\C)c1cccc([N+](=O)[O-])c1 | 2.06
15 | Cc1nn(CC(=O)NCCc2ccccc2)c(C)c1[N+](=O)[O-] | 5.05
16 | O=C(CNC(=S)N(Cc1ccc(F)cc1)C1CCCCC1)NC1CC1 | -6.38
17 | N#C/C(=C\c1c[nH]c2ccccc12)C(N)=O | 10.7
18 | CCCSc1nc2cc(OC)c(OC)cc2c(=N)n1CCCN1CCOCC1 | -31.7
19 | O=C(COC(=O)C(Cc1ccccc1)NC(=O)c1cccs1)NCc1ccccc1 (stereo not drawn) | 3.74
20 | COc1ccc(CNC(=O)Nc2ccccc2)cc1 | -1.46
21 | O=C(OCc1ccc([N+](=O)[O-])cc1Cl)c1cnccn1 | 10.1
22 | Cc1cccc(-c2nc(C#N)c(NC3CCCCC3)o2)c1 | 10.4
23 | CCC(CC)C(=O)N(c1ccc(F)cc1)C1C=CS(=O)(=O)C1 (stereo not drawn) | 6.64
24 | O=C(Nc1scc(-c2ccccc2)c1C(=O)O)c1ccccc1Cl | 3.39
25 | Cc1nnc(SCC(=O)N2c3ccccc3Sc3ccccc32)n1N | 12.5
26 | Cc1cccc(OCc2nc(C#N)c(NCCN(C)C)o2)c1 | -7.23
27 | Nc1ccccc1SC/C=C/CSc1ccccc1N | 14.9

— publication PMC4336329 (PLoS ONE, 2015)
